Blank lines part the entries; values can stand above or below the binder they belong to.
Target: T1, CD25 (IL-2Rα) on the surface of activated T cells (UniProt P01589 22-272, limits assumed)
T1 construct: whole, on cells; also called cell surface CD25
T1 sequence (looked up): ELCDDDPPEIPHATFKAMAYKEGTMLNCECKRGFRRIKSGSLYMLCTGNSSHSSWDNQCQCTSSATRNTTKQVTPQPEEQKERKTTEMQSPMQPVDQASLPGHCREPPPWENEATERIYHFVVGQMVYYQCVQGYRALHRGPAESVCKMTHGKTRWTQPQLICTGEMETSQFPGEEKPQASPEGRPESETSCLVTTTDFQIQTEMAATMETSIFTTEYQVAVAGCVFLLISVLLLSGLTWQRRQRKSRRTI
Test: flow cytometry; activated T cells pulsed with 400 pM Fc.IL-2, stained with anti-human IgG-FITC and anti-CD25-APC

binding result: binds
B1: Fc.N88D IgG1Fc(N297G_delK)::G4S::huIL-2(N88D, C125A) (Fc fusion)
chain: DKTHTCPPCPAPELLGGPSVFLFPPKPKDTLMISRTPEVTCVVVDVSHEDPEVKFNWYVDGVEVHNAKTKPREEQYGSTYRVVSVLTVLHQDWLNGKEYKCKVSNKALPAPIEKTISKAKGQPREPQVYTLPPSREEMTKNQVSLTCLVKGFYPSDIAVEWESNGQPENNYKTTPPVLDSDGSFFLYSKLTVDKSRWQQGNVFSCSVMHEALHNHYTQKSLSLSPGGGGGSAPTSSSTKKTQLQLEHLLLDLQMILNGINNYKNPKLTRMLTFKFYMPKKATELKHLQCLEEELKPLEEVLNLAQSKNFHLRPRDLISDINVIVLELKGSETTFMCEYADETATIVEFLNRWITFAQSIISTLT
notes: Fc homodimer bearing two IL-2 mutein domains

binding result: binds
B2: Fc.V91K IgG1Fc(N297G_delK)::G4S::huIL-2(V91K, C125A) (Fc fusion)
chain: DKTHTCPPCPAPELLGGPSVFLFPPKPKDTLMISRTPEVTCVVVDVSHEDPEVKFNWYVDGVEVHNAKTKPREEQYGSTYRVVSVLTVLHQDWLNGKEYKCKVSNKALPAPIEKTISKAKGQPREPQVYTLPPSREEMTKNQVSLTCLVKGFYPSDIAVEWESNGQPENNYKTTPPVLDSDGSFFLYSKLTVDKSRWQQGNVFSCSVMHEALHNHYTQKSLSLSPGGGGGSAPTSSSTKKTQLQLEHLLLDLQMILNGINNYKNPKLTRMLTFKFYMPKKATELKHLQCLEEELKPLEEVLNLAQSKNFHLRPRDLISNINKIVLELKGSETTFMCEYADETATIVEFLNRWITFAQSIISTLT
notes: as for B1

Source: patent US20140286898A1 (Amgen, published 2014)
